In the supplement of paper PMC10126150:
Sequences with one replicate were seen in a single cluster, so their values are uncertain.

Tested on: ATP
Assay: switch fluorescence ratio, 500 uM ATP over buffer (Cy3 cluster intensity, sum of 5 cycles each) (fold (ratio)); higher = stronger signal-on switching upon ATP binding; sequences stand for … in TCGTCGGCAGCGTCAGATGTGTATAAGAGACAGTTTTTTTTTTTTTTTTTTTTTTTTT…TC
Conditions: aptamer strand: ATP DNA aptamer (quencher-CACCTGGGGGAGTATTGCGGAGGAAGG + anchor), 100 nM annealed; ATP concentration: 500 uM; one replicate
Method in brief: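 For every switch-domain sequence, the fluorescence ratio is the mean of per-cluster values, each being summed target-cycle Cy3 intensity over summed buffer-cycle Cy3 intensity. Clusters outside 100-1000 RFU were excluded. On a modified Illumina MiSeq flow-cell, the Cy3-labelled switching-strand clusters were annealed to 100 nM quencher-labelled ATP aptamer, imaged in selection buffer and then after 15 min with 500 uM ATP at 22 °C. Five such cycles were run, with NaOH stripping and re-annealing between them.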
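Further: ATP exposure 15 min at 22 °C before imaging.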

Row | Sequence | switch fluorescence ratio
1 | GATTACCCGG | 1.03
2 | GTTGTCTGTT | 0.943
3 | CATAGTCCTG | 1.06
4 | TGACCGAGTT | 0.986
5 | AAAGTAATGC | 1.87
6 | GGACATTCTT | 0.998
7 | CTCGACAGTC | 1.04
8 | TCACGGCGTG | 1
9 | ATGCAAGTAA | 1.05
10 | TTCATCAAAG | 1.06
11 | CACTGTGCAA | 2.22
12 | TATGGGGTCT | 1.1
13 | GTGGATACCA | 0.978
14 | CCTATTATA | 0.934
15 | TTCGGTCCGA | 1
16 | CGTTTCAATT | 1
17 | CATTTAGGCA | 0.995
18 | GATGGCTCGG | 1.01
19 | AGTAGCGTC | 1.04
20 | TTGCCCTCGC | 1
21 | CCGCACAAGT | 3.48
22 | AGTGAATTCC | 1.04
23 | TATCTCGAGC | 1.03
24 | TGACTGTCGT | 0.961
25 | CTCAGTTGA | 0.97
26 | TTCTTATCCT | 1.07

Row | Sequence | switch fluorescence ratio
27 | CAGAAAGAAA | 1.04
28 | TTGAGAAACG | 1.02
29 | CAGGTGCAGT | 1.46
30 | CTTGTATAAA | 0.998
31 | ATGAAACTGG | 0.986
32 | AGTTTAAGAG | 0.987
33 | GCCTGGTACG | 1.04
34 | TGTGAAAGTT | 1.02
35 | CCCACACAAT | 2.72
36 | CCGAGAGACG | 1.15
37 | TTTGACGCTG | 1.01
38 | CGTTTATTTG | 0.977
39 | CAAAATAGCC | 0.993
40 | CGGCATCCTG | 0.992
41 | GTTTCATGCC | 0.944
42 | TGCTCGGGCT | 0.998
43 | CGTTTAAGGT | 0.969
44 | AAGGGTA | 0.966
45 | GTGGGTTCCG | 0.973
46 | CCCATATTAT | 0.963
47 | ATCGGTGGGC | 0.988
48 | AGCATAATCT | 1.11
49 | AAGAAGGCCC | 1.07
50 | GACAATACCA | 1.2
51 | ATCATCATTT | 0.991
52 | CCCGGACTGT | 1.01

Row | Sequence | switch fluorescence ratio
53 | GCGATAATGC | 1.48
54 | GTTTTTCTCG | 1.01
55 | CCTTGACTCC | 1.42
56 | TTCGAAGCTT | 1.07
57 | ACGGGAGATG | 1.04
58 | AATTGAACGA | 0.999
59 | ATAATAGAAG | 0.973
60 | GGAACGGAGC | 1.01
61 | CTTTGGGCTC | 0.974
62 | TTTTGCCGAA | 0.993
63 | CCAGGGTTA | 1.01
64 | TGTATTTACT | 0.998
65 | CGGGTCTGCA | 1.04
66 | ATAAATAATA | 0.976
67 | CAGTCTAAG | 0.976
68 | AGCCCTGATG | 1.02
69 | GATGCATCAT | 1.03
70 | GTTTGTGCGT | 1.01
71 | AATGGCTCTG | 1.04
72 | ATAGGAACAT | 0.984
73 | AGCTATGTAT | 1.02
74 | GCTTAGCAGG | 0.976
75 | CAGTCTTAAG | 1.01
76 | ACATCAGGCG | 1.06
77 | TGACTTGCCT | 0.979
78 | GGCATCTCGC | 1.01

Row | Sequence | switch fluorescence ratio
79 | GGTTGCTCAA | 1.05
80 | CTAATTTAAT | 0.988
81 | TGTTAAA | 1.06
82 | CGGCGGCTCC | 3.09
83 | TTAAGCAGGG | 0.98
84 | CTGCGTATAG | 1.24
85 | AAGTGTCCAC | 1.03
86 | AATTGGGCCC | 1.01
87 | CGACCTTTCA | 1.08
88 | TTTTCGTTGC | 1.05
89 | GAACGACCTT | 1.2
90 | AGTCCACCAA | 1.06
91 | TGTGTTCTTC | 0.986
92 | TTAACGGCAT | 1.07
93 | AATCCAGTCA | 1.01
94 | AGCCCCCGGA | 1.06
95 | TAGAAGGAT | 0.981
96 | GGATCTATCG | 0.996
97 | AGGATATTGC | 0.978
98 | ATGACTCTGA | 1.01
99 | AGGCGGCTAA | 0.966
100 | GCAGGTGTCA | 1.27
101 | AACTTCGGTA | 1
102 | GGGAAGGCAA | 1.12
103 | GAGGTACGTT | 0.99
104 | AGTGGTACTG | 0.993

Row | Sequence | switch fluorescence ratio
105 | CTATTGGAAA | 1
106 | GCCACATCAC | 1.27
107 | GATATGCGA | 0.985
108 | ACCGGCAAAC | 1.3
109 | CAGTCGTTTG | 1
110 | CTTCGTCTCA | 1.04
111 | GACCCTTTGA | 0.965
112 | GTCGCTGGGC | 1.06
113 | TCTGTCCAGT | 1.01
114 | GGTGGTGAGA | 0.976
115 | TGGATAACCC | 0.985
116 | TGTGAGGTAT | 1.01
117 | GCCCGGGGGT | 1.02
118 | ACTTCGTC | 1.04
119 | TGGGCTACGT | 1.01
120 | CCGGGGTGAT | 1.26
121 | GTCGTACATT | 0.967
122 | CCCTGCCCGC | 1.78
123 | GGTCATCCCC | 1.04
124 | GAAAAAAGTT | 0.944
125 | ACTCGGTATG | 1.01
126 | GAACCAGGGC | 1.01
127 | CACGATATGC | 1.21
128 | GGGGGCCTGA | 1.01
129 | CGTGTGAGAA | 0.986
130 | ATTGACTCGA | 1

Row | Sequence | switch fluorescence ratio
131 | AGAGACTGG | 0.995
132 | GTCAGAACTT | 1.02
133 | GGTTTCATGC | 1
134 | TCCAGTTCGT | 1.39
135 | ATCCGGCATC | 1.37
136 | GGTCTAACAG | 0.993
137 | GTTGTGGCGA | 0.973
138 | TCTTACAGGC | 0.977
139 | GAACTAAACG | 1.02
140 | AGCGCTCTTC | 1
141 | TTAGTAGAAA | 1
142 | TGGCTCCG | 1.09
143 | TTGCATGCCA | 0.981
144 | CCTGTTTAGC | 1.02
145 | CTTAGCCTTA | 0.966
146 | CCTTGCAGG | 1.21
147 | CGAGCTGATG | 1.02
148 | CGCTACATTC | 1.6
149 | ACGGTAGGAG | 0.975
150 | ATCATTTACT | 1.01
151 | AAAAGGTTGA | 0.998
152 | GGTCATTCGA | 0.991
153 | CTTTACAAGG | 0.971
